The source of these data is PubChem BioAssay (EPA / NIEHS).

The entries are a selection whose mix differs from that of the whole data set. Results filed as inconclusive are left out. The source holds several records for some structures; these can differ, active in one and inactive in another. Calls of active or inactive are those of the source. The calls were made as follows: active = hit-call score of the fitted dose curve at least 0.9, where 1 is the maximum; inconclusive = response in the unintended direction; inactive = score below 0.9.

In general, AC50 refers to the concentration giving half of the maximal activity seen.

Chain of UniProt P04637 (P04637 whole entry, looked up): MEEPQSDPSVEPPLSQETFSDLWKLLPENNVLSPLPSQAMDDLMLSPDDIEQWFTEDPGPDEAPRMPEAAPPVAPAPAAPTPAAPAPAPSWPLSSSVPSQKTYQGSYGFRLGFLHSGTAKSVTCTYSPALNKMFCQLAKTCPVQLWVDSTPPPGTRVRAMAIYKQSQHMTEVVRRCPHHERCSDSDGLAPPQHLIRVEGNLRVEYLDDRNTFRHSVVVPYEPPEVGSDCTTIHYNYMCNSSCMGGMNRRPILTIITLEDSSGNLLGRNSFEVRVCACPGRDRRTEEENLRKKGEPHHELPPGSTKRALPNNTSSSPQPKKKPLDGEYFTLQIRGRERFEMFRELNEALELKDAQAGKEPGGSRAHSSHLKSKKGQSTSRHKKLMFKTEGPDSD

Tested on in the first assay: not listed separately
Put plainly: TOX21_p53_BLA_p2_viability: Viability Assessment in the Tox21 HCT-116 p53 Agonism Beta-lactamase Assay, Phase 2 (AID 2283591).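 Also: compound exposure lasted 16 h at 37 °C; actives lower the ATP signal meaning cytotoxicity.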 The gist of the method: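 HCT-116 p53-bla cells (4000/well) rested 5 h at 37C, then received compounds in DMSO (217-fold dilution) for 16 h at 37C, 5% CO2. After the CCF4 read, CellTiter-Glo was added; ATP luminescence was read after 30 min at room temperature.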
`CC(C)(c1ccccc1)c1ccc(Nc2ccc(C(C)(C)c3ccccc3)cc2)cc1`: the molecule was called inactive.

In the case of `O=C1CC2(CCCC2)CC(=O)N1CCNCC1COc2ccccc2O1` (centres undefined), the molecule was called inactive.

`CCCCC(CC)(CO)CO`: the molecule was classed as inactive.

In the case of `CN(C)C(=O)CNC(=O)Cc1ccccc1`, the molecule was classed as inactive.

For `CCc1c(C)[nH]c2c1C(=O)C(CN1CCOCC1)CC2` (centres undefined), the result was inactive.

Regarding `Cc1ccc(C(C)(C)C)c(O)c1`, the outcome was inactive.

With `C=CN1CCCC1=O`, the molecule was classed as inactive.

Take `C[C@@H]1C[C@H]2[C@@H]3CCC4=CC(=O)C=C[C@]4(C)[C@@]3(F)[C@@H](O)C[C@]2(C)[C@@]1(O)C(=O)CO`: the outcome was inactive.

As to `CC1(CN2CCC(n3c(=O)[nH]c4ccccc43)CC2)OCc2ccccc2-n2cccc21` (centres undefined), the AC50 is active: 32.6 µM.

Turning to `O=C(O)CCNC(=O)c1ccc(N=Nc2ccc(O)c(C(=O)O)c2)cc1`, the result was inactive.

For the molecule `COc1ccc(C(Cl)=C(c2ccc(OC)cc2)c2ccc(OC)cc2)cc1`, the result was inactive.

In a further assay the target is Cellular tumor antigen p53 (Homo sapiens) (UniProt P04637). The assay is described as follows: TOX21_p53_BLA_p2_ratio: Tox21 HCT-116 p53 Agonism Beta-lactamase Assay, Ratio, Phase 2 (AID 2283592). The gist of the method:
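Ratio endpoint: beta-lactamase cleavage of CCF4-AM, blue (460 nm) over green (530 nm). HCT116 reporter line; 16 h treatment, 37C; substrate 2 h RT.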
Take `N#C/C(=C1/SC[C@@H](c2ccc(Cl)cc2Cl)S1)n1ccnc1`: the result was inactive.

`Oc1ccc(-c2ccc(O)cc2)cc1`: the AC50 is active: 45.4 µM.

As to `Oc1cc(O)cc(O)c1`, the result was inactive.

As to `NC[C@H]1O[C@H](O[C@H]2[C@H](O)[C@@H](O[C@H]3O[C@H](CO)[C@@H](O)[C@H](N)[C@H]3O)[C@H](N)C[C@@H]2N)[C@H](N)C[C@@H]1O`, the outcome was inactive.

With `CCc1cccc2c3c([nH]c12)C(CC)(CC(=O)O)OCC3` (centres undefined), the outcome was inactive.

In the case of `C=C[Si](OCCOC)(OCCOC)OCCOC`, the outcome was inactive.

For `Cc1ccccc1C(=O)Nc1ccc(C(=O)N2CCCC(O)c3cc(Cl)ccc32)c(C)c1` (centres undefined), the result was inactive.

For the molecule `OCC(F)(F)F`, the outcome was inactive.

Consider `CC[C@H]1OC(=O)[C@H](C)[C@@H](O[C@H]2C[C@@](C)(OC)[C@@H](O)[C@H](C)O2)[C@H](C)[C@@H](O[C@@H]2O[C@H](C)C[C@H](N(C)C)[C@H]2O)[C@](C)(OC)C[C@@H](C)C(=O)[C@H](C)[C@@H](O)[C@]1(C)O`, for which the outcome was inactive.

Take `CC(=O)CCCCn1c(=O)c2c(ncn2C)n(C)c1=O`: the result was inactive.

As to `COC(=O)C(CN)c1c[nH]c2ccc(OC)cc12` (centres undefined), the outcome was inactive.

Regarding `CCN(CC)CCOc1ccc(C(O)(Cc2ccc(Cl)cc2)c2ccc(C)cc2)cc1` (centres undefined), the AC50 is active: 43.5 µM.

In the case of `C=COCC1CCC(COC=C)CC1` (centres undefined), the outcome was inactive.

Turning to `Cc1ccccc1CCO`, the outcome was inactive.

`COc1c(O)cc2c(c1O)[C@@H]1O[C@H](CO)[C@@H](O)[C@H](O)[C@H]1OC2=O`: the outcome was inactive.

Consider `O=c1cc(-c2ccccc2)oc2cc(O)cc(O)c12`, for which the AC50 was active: 39.6 µM.

`CCc1c(C)[nH]c2c1C(=O)C(CN1CCOCC1)CC2` (centres undefined): the result was inactive.

Take `CCC[C@H](N[C@@H](C)C(=O)N1[C@H](C(=O)O)C[C@@H]2CCCC[C@@H]21)C(=O)OCC`: the outcome was inactive.

Take `O=C1c2c(O)cccc2C([C@@H]2O[C@H](CO)[C@@H](O)[C@H](O)[C@H]2O)c2cc(CO)cc(O)c21` (some centres undefined): the outcome was inactive.

For `N#CCN(CC#N)CCN(CC#N)CC#N`, the result was inactive.

On to `O=C(O)CCC(=O)C(=O)O`, for which the result was inactive.

In the case of `CCO/C([O-])=N/c1c[n+](N2CCOCC2)no1`, the result was inactive.

With `CC(C)(C)c1ccc(O)c(C(C)(C)C)c1`, the AC50 was active: 54.5 µM.

For the molecule `CN(C)CC/C=C1/c2ccccc2COc2ccc(CC(=O)O)cc21`, the outcome was inactive.

With `Nc1ccc(C(=O)O)c(O)c1`, the outcome was inactive.

Take `CCC1NC(=O)c2cc(S(N)(=O)=O)c(Cl)cc2N1` (centres undefined): the outcome was inactive.

Consider `c1ccc2[nH]cnc2c1`, for which the result was inactive.

As to `C=CCCCCCCCCC=O`, the result was inactive.
